Test results reported in the RNAGym collection of RNA variant scans (doi:10.1073/pnas.2313332121).
Variants at the floor of the assay are shown more often than the library holds them.

B1: TPR 5TU (parent)
chain: GGAUCUUCUCGAUCUAACAAAAAAGACAAAUCUGCCACAAAGCUUGAGAGCAUCUUCGGAUGCAGAGGCGGCAGCCUUCGGUGGCGCGAUAGCGCCAACGUUCUCAACUAUGACACGCAAAACGCGUGCUCCGUUGAAUGGAGUUUAUCAUG

Variants of: B1
Experiment: polymerase ribozyme fitness, log enrichment relative to wild type (log ratio); higher = more active; in vitro selection for triplet polymerase activity
Summary of the method: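 One round of in vitro selection, in triplicate, was applied to PCR-built, transcribed mutant libraries of each subunit of a heterodimeric triplet polymerase ribozyme. The steps were annealing with a biotinylated primer, partner subunit and triplets, incubation frozen at −7 °C, gel excision of extended constructs, streptavidin-bead capture and RT-PCR. Fitness is the logarithm, base 2, of genotype enrichment over wild-type enrichment from inverse-variance-weighted replicate averages of Illumina-sequenced inputs and outputs, keeping genotypes with ≥10 input reads and ≥1 read per output.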

Polymerase ribozyme fitness (log ratio), -3.76:
C18U U53A C95U C99G

Polymerase ribozyme fitness (log ratio), -2.68:
C18G C35U C75U C95U A120G U134C

Polymerase ribozyme fitness (log ratio), -2.59:
A19U A20U C85U

Polymerase ribozyme fitness (log ratio), -2.84:
A17U G92A

Polymerase ribozyme fitness (log ratio), ≤ -4.2:
A19G C43G C51G G68A G80A
A19G G34U U56A G70A U134A
A19C A24U C27G C76G U148C C149U
A19U A20G A66G G80A C87A A107G A110C
A17U C57U G71A U78G G81U C96U A137G A142U
A17U A22G A39C C76U A91G U139C A150C
A17U A24U C36A G59A U77G G83A A98U C105U C116G
A19G A47U G84A C85G A147C
A19G A47U G84U C96A A98G C99U G100C A110U
A17U U78A C87U U101G A120U A142G
C18G A22C A40G G42A C75A C79U C95G C125G
A17U A37C A60G C93U C96G A97G A107G
A19C A52U C87A A97U U127C A142C
C18U A24C C35G G65C A66U G83A A89U A138G A150U
A17U G42U C99A C105U A120U
C18G A26G C57G G86A G88C U139G G141U
C18G A24G A49C C87U U90G A98G G124U
C18G G71U G94C A120C G124U A150C
A19U A29U C93U G117U
A17U A23U A37G C43U U56A G94C A119C G141A
C18U C35G U55C C57A A66G G81A C85U
C18G A24G U56A A60G C76G A91C U104G G124U
A19C C27U A29C A52C G86C A137G G143U
A17U C85A C96U A137U U144A
A17U C36U C85A U135C
A19G C35A U56A C57G C79A
C18U A41U C87G C103G C105G G128A
A19U A23U G65U U109C G143A
A19C A39C U53A G94U U104C A115G
C18G A24G C32U C57U C63G C93A A110U A122C U146C U148C
C18G A21G A24U A41C U53G C54G G84U G92U C93G G143C
A19G C35U G70C A91C G100U A113G G124C A138C
C18G A28G A52G
A19C A29G A37C C51G C93U
A17U A24C U53G U55A C57U G92C G133C

Polymerase ribozyme fitness (log ratio), -4.17:
C18G U31A A120G G128U A137G

Polymerase ribozyme fitness (log ratio), -3.82:
A17U U101A U139G A142U

Polymerase ribozyme fitness (log ratio), 0.678:
A19C G117C
